# The supplement of paper PMC9446081
# In all, about 39,000 compounds went through this assay and about 220 (0.56%) showed activity. The list shows a part of the results.
# Test system: Escherichia coli K-12 BW25113
# Assay: relative growth (OD600 normalised to plate interquartile mean) (fraction); higher = less growth inhibition, active = 0.2 or less
# Settings: 50 µM; LB; incubation time: overnight (16-24 h)
# 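Also: static incubation at 37 °C against the wild-type strain, values averaged over two biological replicates.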
row,Compound,relative growth
1,C[C@@H]1CCCCO[C@H](CN(C)C(=O)Nc2ccc3c(c2)OCO3)[C@@H](C)CN([C@H](C)CO)C(=O)c2cc(NC(=O)Cc3ccccc3)ccc2O1,inactive: 1.02
2,Cc1noc(C)c1S(=O)(=O)Nc1ccc2c(c1)CC(=O)N([C@H](C)CO)C[C@@H](C)[C@H](CN(C)S(=O)(=O)c1ccc(F)cc1)O2,inactive: 0.989
3,C[C@@H]1CCCCO[C@@H](CN(C)C(=O)C2CCCCC2)[C@@H](C)CN([C@@H](C)CO)C(=O)c2cc(NC(=O)Nc3ccc(F)cc3)ccc2O1,inactive: 0.997
4,C[C@H]1CN([C@@H](C)CO)C(=O)c2cc(C#CCc3ccccc3)cnc2O[C@@H]1CN(C)CC1CCOCC1,inactive: 1.02
5,CNC[C@H]1OCCCC[C@H](C)Oc2ccc(NC(=O)c3ccncc3)cc2C(=O)N([C@H](C)CO)C[C@@H]1C,inactive: 0.999
6,COc1ccc(S(=O)(=O)Nc2ccc3c(c2)C(=O)N([C@@H](C)CO)C[C@@H](C)[C@H](CN(C)C(=O)Nc2ccc(F)cc2)OCCCC[C@@H](C)O3)cc1,inactive: 1.03
7,C[C@@H]1CCCCO[C@H](CN(C)C(=O)Nc2ccc3c(c2)OCO3)[C@@H](C)CN([C@@H](C)CO)C(=O)c2cc(NC(=O)c3ccncc3)ccc2O1,inactive: 0.997
8,Cc1noc(C)c1NC(=O)Nc1ccc2c(c1)CC(=O)N([C@H](C)CO)C[C@H](C)[C@H](CN(C)Cc1ccc(Oc3ccccc3)cc1)O2,inactive: 0.987
9,C[C@@H]1CCCCO[C@@H](CN(C)Cc2ccc(C(F)(F)F)cc2)[C@@H](C)CN([C@@H](C)CO)C(=O)c2cc(NS(=O)(=O)c3cn(C)cn3)ccc2O1,inactive: 0.97
10,C[C@H](NC(=O)N(C)C[C@H]1OCc2ccccc2-c2ccccc2C(=O)N([C@@H](C)CO)C[C@@H]1C)c1ccccc1,inactive: 1.02
11,O=C(Cc1ccccn1)NCC[C@H]1CC[C@H](NC(=O)CN2CCOCC2)[C@H](CO)O1,inactive: 1.01
12,CC(C)NC(=O)Nc1ccc2c(c1)C(=O)N([C@H](C)CO)C[C@H](C)[C@H](CN(C)C(=O)Nc1cccc3ccccc13)OCCCC[C@H](C)O2,inactive: 0.909
13,C[C@@H]1CCCCO[C@H](CN(C)C(=O)Nc2ccc3c(c2)OCO3)[C@@H](C)CN([C@@H](C)CO)C(=O)c2cc(NS(=O)(=O)c3ccc(F)cc3)ccc2O1,inactive: 0.996
14,O=C(/C=C/c1cccc(-c2cn(-c3cccc(C(=O)N4CCC5(CC4)C(=O)NCN5c4ccccc4)c3)nn2)c1)NO,inactive: 0.972
15,C[C@@H]1CN([C@@H](C)CO)C(=O)Cc2cc(NC(=O)Nc3ccc(C(F)(F)F)cc3)ccc2O[C@@H]1CN(C)Cc1ccc(C(F)(F)F)cc1,inactive: 1.04
16,Cc1noc(C)c1NC(=O)N(C)C[C@@H]1OCCCC[C@H](C)Oc2ccc(NC(=O)Nc3ccc(F)cc3)cc2C(=O)N([C@@H](C)CO)C[C@@H]1C,inactive: 0.987
17,COC(=O)c1cc(-c2ccccc2)c(=O)n2c1N(C)[C@@]1(COCc3ccc(OC)cc3)Oc3ccccc3[C@@H]2[C@H]1CO[Si](C)(C)C(C)(C)C,inactive: 1.04
18,CC(=O)Nc1ccc(S(=O)(=O)Nc2ccc([N+](=O)[O-])cc2)cc1,inactive: 1.01
19,COc1ccc(NC(=O)[C@H]2[C@@H](c3ccc(C)cc3)CC(=O)N2C(=O)OCc2ccccc2)c2ncccc12,inactive: 0.944

row,Compound,relative growth
1,C[C@H](CO)N1C[C@H](C)[C@H](CN(C)Cc2ccc(Cl)c(Cl)c2)Oc2ccc(NC(=O)CCC(F)(F)F)cc2C1=O,inactive: 0.992
2,C[C@H](CO)N1C[C@H](C)[C@H](CN(C)CC2CC2)Oc2ccc(NC(=O)CCN3CCOCC3)cc2CC1=O,inactive: 1
3,NS(=O)(=O)c1cccc2c1c([N+](=O)[O-])cc1[nH]c(=O)c(=O)[nH]c12,inactive: 0.971
4,CN1C[C@@H](N)CC1=O,inactive: 1.01
5,COc1ccc(COC[C@]23Oc4ccccc4[C@H]([C@H]2CO[Si](C)(C)C(C)(C)C)N(C(=O)CC(C)=O)C(=O)N3C)cc1,inactive: 1
6,CN(C)CCCNC(=O)C[C@@H]1CC[C@H]2[C@@H](COC[C@@H](O)CN2S(=O)(=O)c2ccccc2)O1,inactive: 0.994
7,C[C@@H]1CN([C@@H](C)CO)C(=O)c2cc(NS(=O)(=O)c3ccccc3)ccc2O[C@@H](C)CCCCO[C@@H]1CN(C)S(=O)(=O)c1ccc(Cl)cc1,inactive: 1.01
8,COc1ccc(NC(=O)N(C)C[C@@H]2Oc3ccc(NC(=O)CCCCCC(=O)Nc4ccccc4N)cc3CC(=O)N([C@H](C)CO)C[C@@H]2C)cc1,inactive: 0.973
9,C[C@H](CO)N1C[C@H](C)[C@H](CN(C)Cc2ccc(C(=O)Nc3ccccc3N)cc2)Oc2ccc(NS(C)(=O)=O)cc2C1=O,inactive: 1.01
10,COc1ccc(S(=O)(=O)N(C)C[C@@H]2Oc3ccc(NS(=O)(=O)c4ccc(F)cc4)cc3CC(=O)N([C@H](C)CO)C[C@@H]2C)cc1,inactive: 1.01
11,NNC(=O)c1cc(-c2ccccc2)n[nH]1,inactive: 0.937
12,C[C@H](CO)N1C[C@H](C)[C@@H](CN(C)C(=O)CCCN(C)C)OCCCC[C@H](C)Oc2ccc(NC(=O)Nc3cccc4ccccc34)cc2C1=O,inactive: 0.98
13,C[C@@H]1CN([C@@H](C)CO)C(=O)CCCn2nncc2CO[C@H]1CN(C)C(=O)Nc1ccc(C(C)(C)C)cc1,inactive: 1
14,C[C@H](CO)N1C[C@H](C)[C@@H](CN(C)Cc2ccccc2)OCCCC[C@H](C)Oc2ccc(NS(=O)(=O)c3ccc(Cl)cc3)cc2C1=O,inactive: 1.03
15,CCCNC(=O)C[C@@H]1CC[C@H]2NC[C@H](O)COC[C@@H]2O1,inactive: 1.01
16,C[C@@H]1CN([C@@H](C)CO)C(=O)c2cccc(NS(C)(=O)=O)c2O[C@H]1CN(C)C(=O)NC1CCCCC1,inactive: 1.01
17,C[C@@H]1CN([C@@H](C)CO)C(=O)Cc2cc(NC(=O)C3CC3)ccc2O[C@@H]1CN(C)S(=O)(=O)c1cn(C)cn1,inactive: 1.03
18,COc1ccc(S(=O)(=O)Nc2ccc3c(c2)C(=O)N([C@H](C)CO)C[C@@H](C)[C@@H](CN(C)S(=O)(=O)c2ccc(F)cc2)O3)cc1,inactive: 1.03
19,O=C1O[C@@H](c2ccccc2)[C@@H](c2ccccc2)N2[C@@H](c3ccc(O)cc3)[C@]3(C(=O)Nc4ccc(C#CC5=CCCCC5)cc43)[C@@H](C(=O)O)[C@H]12,inactive: 0.968

row,Compound,relative growth
1,C[C@@H]1CCCCO[C@H](CN(C)C(=O)Nc2ccc(C(F)(F)F)cc2)[C@H](C)CN([C@H](C)CO)C(=O)c2cc(NC(=O)C3CCCCC3)ccc2O1,inactive: 0.993
2,C[C@H]1CCCCO[C@H](CN(C)CC2CCCCC2)[C@@H](C)CN([C@@H](C)CO)C(=O)c2cc(NC(=O)c3ccncc3)ccc2O1,inactive: 0.996
3,CON=C1CN(c2nc3c(cc2F)c(=O)c(C(=O)O)cn3C2CC2)CC1CN.CS(=O)(=O)O (configuration not stated),active: 0.0419
4,C[C@H]1CCCCO[C@@H](CN(C)C(=O)Nc2ccccc2)[C@@H](C)CN([C@@H](C)CO)C(=O)c2cc(NC(=O)Nc3ccc4c(c3)OCO4)ccc2O1,inactive: 1.05
5,COc1ccc(CN(C)C[C@@H]2OCCCC[C@@H](C)Oc3ccc(NC(=O)NC(C)C)cc3C(=O)N([C@H](C)CO)C[C@@H]2C)cc1,inactive: 1.04
6,C[C@H](CO)N1C[C@H](C)[C@H](CN(C)C(=O)Nc2ccc(F)cc2)Oc2ncc(C#CCN(C)C)cc2C1=O,inactive: 1.01
7,C[C@@H]1CN([C@H](C)CO)S(=O)(=O)c2ccc(C#CCN(C)C)cc2O[C@H]1CN(C)C,inactive: 1.01
8,O=C(NCc1ccc2c(c1)OCO2)[C@@H]1[C@@H](CO)[C@@H]2Cn3c(cccc3=O)[C@H]1N2Cc1cncnc1,inactive: 1.04
9,COc1ccc(NC(=O)Nc2ccc3c(c2)C(=O)N([C@@H](C)CO)C[C@H](C)[C@@H](CN(C)CC2CC2)OCCCC[C@H](C)O3)cc1,inactive: 0.983
10,C[C@H]1CN([C@@H](C)CO)C(=O)c2cccc(NC(=O)CCCCCC(=O)Nc3ccccc3N)c2O[C@@H]1CN(C)C(=O)Nc1ccc(F)cc1,inactive: 0.991
11,CC1CN(c2c(F)c(N)c3c(=O)c(C(=O)O)cn(C4CC4)c3c2F)CC(C)N1 (configuration not stated),active: 0.0495
12,COc1ccc(NC(=O)N(C)C[C@H]2OCCCC[C@H](C)Oc3ccc(NC(=O)NC4CCCCC4)cc3C(=O)N([C@H](C)CO)C[C@H]2C)cc1,inactive: 1.01
13,C[C@@H]1CN([C@@H](C)CO)C(=O)c2cc(NC(=O)C3CCCCC3)ccc2O[C@@H](C)CCCCO[C@H]1CN(C)C(=O)Nc1ccccc1,inactive: 1.02
14,C[C@@H]1CCCCO[C@@H](CN(C)S(=O)(=O)c2cccs2)[C@@H](C)CN([C@@H](C)CO)C(=O)c2cc(NC(=O)Nc3ccccc3)ccc2O1,inactive: 1.06
15,CS(=O)(=O)NCc1cnc2n1CCN(C(=O)[C@H]1CCOC1)CC2,inactive: 1.05
16,C[C@@H]1COC(=O)[C@H](Cc2ccc(F)cc2)CC=CC[C@@H](CC(=O)N(CCO)Cc2ccccc2)C(=O)N1,inactive: 1.01
17,COc1ccc(NC(=O)N(C)C[C@H]2Oc3ccc(NC(=O)CCCN(C)C)cc3C(=O)N([C@H](C)CO)C[C@@H]2C)cc1,inactive: 1.03
18,CN1C(=O)c2cc(NC(=O)C3CCOCC3)ccc2OC[C@@H]2O[C@H](CC(=O)NCCc3ccncc3)CC[C@H]21,inactive: 1.01
19,Cc1ccc(S(=O)(=O)Nc2ccc3c(c2)C(=O)N([C@@H](C)CO)C[C@@H](C)[C@H](CN(C)S(=O)(=O)c2ccc(C)cc2)OCCCC[C@H](C)O3)cc1,inactive: 1.03
